Experimental data as given in PubChem BioAssay (Tox21).
Where “and” joins values, the source holds several entries; their conditions need not be identical. Identical values can stand only once. The shares of active, inactive and inconclusive entries below differ from those in the screen. A potency beside an inconclusive call is a rough fit, not a confirmed value. Where a structure was tested more than once in an assay, its records may differ in their call. Calls of active or inactive are those of the source. The call rests on the fitted dose curve; in most records, active means well fitted curve in the direction sought with a large enough effect in the repeat runs; inconclusive means weak or mixed curves; inactive means no such curve, though single readings can be large; an effect the other way counts as inactive or inconclusive.

Test: qHTS RealTime-Glo MT Cell Viability Assay in HEK293 cells - 32 hour (AID 1224868); further: nearly all actives have a fitted effect of over 50% in size
Details: RealTime-Glo luminescence; series mostly up to 76.8 µM
Procedure, shortened: (§1)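 Viability tracked continuously by luminescence as live cells reduce a prosubstrate for NanoLuc; HEK293 cells preincubated 5 h, compound-treated at 37 C, and read at 0, 8, 16, 24, 32 and 40 h.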
Potency means the concentration at half of the fitted maximal effect; tags describe the fitted curve by direction and shape.

Compound | Potency
N/C(=N\N=C\c1ccc(Cl)cc1)N/N=C/c1ccc(Cl)cc1 | inconclusive: 21.3 µM [cytotoxic, partial curve]
CCCCCCCCCCCCCCCCCCNC(=O)OC1CCN(C(=O)OC[C@H](COC(=O)N(Cc2cccc[n+]2CC)C(=O)c2ccccc2OC)OC)CC1 | active: 9.52 µM
CC(C)c1ccc2sc3ccccc3c(=O)c2c1 | inconclusive: 30.9 µM [cytotoxic, partial curve]
CCCCC(CC)CN=C(N)NC(N)=NCCCCCCN=C(N)NC(N)=NCC(CC)CCCC (stereo not given) | active: 5.35 µM
Cc1ccc(C(C)(C)C)c(O)c1 | inconclusive: 59.7 µM [cytotoxic, partial curve, poor fit]
CC1=CC(=O)c2ccccc2C1=O | inconclusive: 26.8 µM [cytotoxic, single point]
S=C(NC1CCCCC1)NC1CCCCC1 | active: 15.2 µM and active: 21.9 µM
O=C(Nc1ccccc1)c1cc(Cl)ccc1O | inconclusive: 21.9 µM [cytotoxic, partial curve]
COc1ccc(C(Cl)=C(c2ccc(OC)cc2)c2ccc(OC)cc2)cc1 | inconclusive: 21.9 µM [cytotoxic, partial curve]
Oc1ccc(Cl)cc1C1CCCC1 | inconclusive: 24.5 µM [cytotoxic, full curve]

Test: A CellTox Green Cytotoxicity Assay to monitor cytotoxicity in HEK293 cells - 0 hour (AID 1224869); further: nearly all actives have a fitted effect of over 50% in size
Details: CellTox Green fluorescence
Procedure, shortened: (§2)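 Seeding of HEK293 cells together with cytotoxicity dye preceded a 5 h incubation at 37 C/5% CO2. Test compounds in DMSO were then added and fluorescence monitored across 40 h.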

Compound | Potency
CC(C)(C)c1ccc(C(=O)CCCN2CCC(OC(c3ccccc3)c3ccccc3)CC2)cc1 | inconclusive: 16.9 µM [activator, partial curve]
COc1ccc(C(Cl)=C(c2ccc(OC)cc2)c2ccc(OC)cc2)cc1 | inconclusive: 43.6 µM [activator, partial curve, poor fit]
C=C(C)C(=O)OCCC[Si](OC)(OC)OC | inconclusive: 61 µM [activator, single point]
CN(C)C(=S)SC(=S)N(C)C | inconclusive: 44.8 µM [activator, single point]

Test: qHTS RealTime-Glo MT Cell Viability Assay in HepG2 cells - 40 hour (AID 1224870); further: nearly all actives have a fitted effect of over 50% in size
Details: RealTime-Glo luminescence; series mostly up to 76.8 µM
Procedure, shortened: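 HepG2 cells mixed with RealTime-Glo MT reagents (NanoLuc plus cell-permeant prosubstrate) were seeded at 600 cells/well, incubated 5 h at 37 C/5% CO2, then pinned with compounds in DMSO; nonlytic luminescence tracked viability during 40 h treatment.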

Compound | Potency
CCCC(c1cc(C(C)(C)C)c(O)cc1C)c1cc(C(C)(C)C)c(O)cc1C | active: 31.3 µM
O=C1c2ccccc2C(=O)N1SC1CCCCC1 | active: 43.6 µM
N/C(=N\N=C\c1ccc(Cl)cc1)N/N=C/c1ccc(Cl)cc1 | inconclusive: 26.8 µM [falling, single point]
O=C1C=CC(=O)N1c1ccc(Cc2ccc(N3C(=O)C=CC3=O)cc2)cc1 | active: 15.5 µM
O=C(Nc1ccc(Cl)cc1)Nc1ccc(Cl)c(C(F)(F)F)c1 | inconclusive: 9.52 µM [falling, partial curve]
CS(=O)(=O)CCNCc1ccc(-c2ccc3ncnc(Nc4ccc(OCc5cccc(F)c5)c(Cl)c4)c3c2)o1 | inconclusive: 23.9 µM [falling, partial curve]

Test: A CellTox Green Cytotoxicity Assay to monitor cytotoxicity in HEK293 cells - 40 hour (AID 1224871); further: nearly all actives have a fitted effect of over 45% in size
Details: CellTox Green fluorescence; series mostly up to 76.8 µM
Procedure, shortened: as §2

Compound | Potency
O=C1c2ccccc2C(=O)N1SC1CCCCC1 | active: 12.3 µM and active: 21.9 µM
CCCCCCCCCCCCCCCCCCNC(=O)OC1CCN(C(=O)OC[C@H](COC(=O)N(Cc2cccc[n+]2CC)C(=O)c2ccccc2OC)OC)CC1 | inconclusive: 26.8 µM [activator, single point]
O=C(Nc1ccc(Cl)cc1)Nc1ccc(Cl)c(C(F)(F)F)c1 | inconclusive: 19 µM [activator, partial curve, poor fit]
Oc1ccc(-c2ccccc2)c(Cl)c1 | inconclusive: 54.9 µM [activator, single point]
CCCCC(CC)CN=C(N)NC(N)=NCCCCCCN=C(N)NC(N)=NCC(CC)CCCC (stereo not given) | active: 8.49 µM
Cc1ccc(C(C)(C)C)c(O)c1 | active: 23.8 µM and active: 24.5 µM
CN(C[C@@H](CC[N+]12CCC(C3CCCCC3)(CC1)CC2)c1ccc(Cl)c(Cl)c1)C(=O)c1cc(C(F)(F)F)cc(C(F)(F)F)c1 | active: 27.5 µM
CC1=CC(=O)c2ccccc2C1=O | active: 21.9 µM and active: 23.9 µM
O=C(Nc1ccccc1)c1cc(Cl)ccc1O | inconclusive: 61.6 µM [activator, single point]

Test: qHTS RealTime-Glo MT Cell Viability Assay in HEK293 cells - 16 hour (AID 1224872); further: nearly all actives have a fitted effect of over 50% in size
Details: RealTime-Glo luminescence; series mostly up to 76.8 µM
Procedure, shortened: as §1

Compound | Potency
CCCCCCCCOC(=O)c1ccc(O)cc1 | active: 27.4 µM and inconclusive: 19.5 µM [cytotoxic, full curve]
O=C1c2ccccc2C(=O)N1SC1CCCCC1 | active: 34.6 µM and active: 38.9 µM
N/C(=N\N=C\c1ccc(Cl)cc1)N/N=C/c1ccc(Cl)cc1 | inconclusive: 19 µM [cytotoxic, partial curve]
CCCCCCCCCCCCCCCCCCNC(=O)OC1CCN(C(=O)OC[C@H](COC(=O)N(Cc2cccc[n+]2CC)C(=O)c2ccccc2OC)OC)CC1 | active: 21.3 µM
CC(C)c1ccc2sc3ccccc3c(=O)c2c1 | inconclusive: 24.5 µM [cytotoxic, partial curve]
Cc1cc(CCN2CCN(c3nsc4ccccc34)CC2)cc2c1NC(=O)CC2(C)C | active: 13.8 µM
Cc1ccc(C(C)(C)C)c(O)c1 | inconclusive: 42.3 µM [cytotoxic, partial curve] and inactive
S=C(NC1CCCCC1)NC1CCCCC1 | inconclusive: 15.2 µM [cytotoxic, full curve] and inconclusive: 24.5 µM [cytotoxic, partial curve]
O=C(Nc1ccccc1)c1cc(Cl)ccc1O | inconclusive: 21.9 µM [cytotoxic, partial curve]
CCCCCCCCNC(C)C(O)c1ccc(SC(C)C)cc1 (stereo not given) | active: 10.7 µM
COc1ccc(C(Cl)=C(c2ccc(OC)cc2)c2ccc(OC)cc2)cc1 | inconclusive: 21.9 µM [cytotoxic, partial curve, poor fit]
